Laboratory results reported in paper PMC4336329 (PLoS ONE, 2015).
The whole screen tested about 310,000 compounds, of which about 2,200 (0.71%) showed an effect of 50% or more. The effect is printed as a negative number. The list shows a part of the results.

These compounds were tested against human ether-à-go-go-related gene (hERG) potassium channel (human, UniProt Q12809) (assay: primary screen, population patch clamp on CHO cells stably expressing hERG).
Chain of human ether-à-go-go-related gene (hERG) potassium channel (Q12809 whole entry, looked up): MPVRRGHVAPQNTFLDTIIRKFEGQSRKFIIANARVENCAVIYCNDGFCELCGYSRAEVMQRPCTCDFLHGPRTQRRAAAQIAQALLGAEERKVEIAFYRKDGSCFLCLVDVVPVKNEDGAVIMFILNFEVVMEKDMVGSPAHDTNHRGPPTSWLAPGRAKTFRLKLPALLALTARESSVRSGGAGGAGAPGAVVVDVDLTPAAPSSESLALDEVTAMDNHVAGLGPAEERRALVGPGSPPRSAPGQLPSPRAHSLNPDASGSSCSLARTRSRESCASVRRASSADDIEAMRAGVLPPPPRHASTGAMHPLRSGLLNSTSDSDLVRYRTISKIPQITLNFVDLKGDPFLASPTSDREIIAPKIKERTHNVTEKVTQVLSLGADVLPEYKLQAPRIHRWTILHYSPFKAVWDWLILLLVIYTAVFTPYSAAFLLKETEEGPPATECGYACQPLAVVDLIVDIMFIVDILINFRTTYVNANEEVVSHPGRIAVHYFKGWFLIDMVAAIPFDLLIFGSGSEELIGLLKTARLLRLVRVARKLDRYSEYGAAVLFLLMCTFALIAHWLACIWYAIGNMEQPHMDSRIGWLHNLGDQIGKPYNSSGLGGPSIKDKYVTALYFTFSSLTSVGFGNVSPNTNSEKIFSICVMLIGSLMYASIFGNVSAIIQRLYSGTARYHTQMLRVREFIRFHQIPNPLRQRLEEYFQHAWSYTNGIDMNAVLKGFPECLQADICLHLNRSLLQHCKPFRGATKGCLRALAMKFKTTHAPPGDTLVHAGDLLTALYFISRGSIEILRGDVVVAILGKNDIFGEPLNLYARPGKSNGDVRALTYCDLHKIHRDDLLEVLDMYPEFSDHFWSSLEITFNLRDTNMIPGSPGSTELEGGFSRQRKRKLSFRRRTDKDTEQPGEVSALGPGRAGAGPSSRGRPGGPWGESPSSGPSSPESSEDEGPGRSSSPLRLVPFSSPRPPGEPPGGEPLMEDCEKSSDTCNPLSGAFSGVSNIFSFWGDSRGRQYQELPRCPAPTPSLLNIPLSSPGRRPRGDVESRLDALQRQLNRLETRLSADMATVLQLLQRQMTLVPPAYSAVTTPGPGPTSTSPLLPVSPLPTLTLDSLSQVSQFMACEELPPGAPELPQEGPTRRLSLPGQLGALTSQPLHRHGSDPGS

| Compound | hERG current change (%, negative = inhibition) at 1uM [%] |
| --- | --- |
| CC1(C)CC(NC(=O)CSc2ccccc2)CC(C)(C)N1 | 6.28 |
| O=C(O)CSc1nnc(-c2ccc(S(=O)(=O)N3CCCC3)cc2)n1Cc1ccco1 | 12.4 |
| CCOC(=O)c1c(N)sc(C(O)(C(F)(F)F)C(F)(F)F)c1-c1ccc(F)cc1 | 10.8 |
| Cc1ccc(NC(=S)Nc2ccc(Br)cc2)cc1 | 8.44 |
| OC[C@H]1O[C@@H]2O[C@H]3[C@H](O)[C@@H](O)[C@@H](O[C@H]4[C@H](O)[C@@H](O)[C@@H](O[C@H]5[C@H](O)[C@@H](O)[C@@H](O[C@H]6[C@H](O)[C@@H](O)[C@@H](O[C@H]7[C@H](O)[C@@H](O)[C@@H](O[C@H]1[C@H](O)[C@H]2O)O[C@@H]7CO)O[C@@H]6CO)O[C@@H]5CO)O[C@@H]4CO)O[C@@H]3CO | 4 |
| CNC(=O)COC(=O)c1ccc(NC(=O)CC#N)cc1 | 12.4 |
| CCCN(CC(=O)Nc1ccc(F)c(F)c1F)C(=O)C1=COCCO1 | 10.3 |
| C/C(=N\NC(=O)CSc1nnc(C)s1)c1ccc(Cl)cc1 | 11.5 |
| CN(CC(=O)Nc1ccccc1Cl)C(=O)Cn1nnc(-c2ccc(F)cc2)n1 | 2.61 |
| CCN(CC)S(=O)(=O)c1ccc(NS(=O)(=O)c2ccc(OC)c([N+](=O)[O-])c2)cc1 | 7.05 |
| CC(=O)c1cccc(NC(=O)N2CCCC2C(=O)NC2CCCC2)c1 (stereo not drawn) | 13.7 |
| CCC(=O)N1CCc2cc(Br)cc(S(=O)(=O)NCC3CCCO3)c21 (stereo not drawn) | 5.51 |
| S=c1[nH]c(-c2ccccc2)cs1 | 28.2 |
| Cc1ccc(-c2nc3ccccc3c(=O)n2-n2cccc2)cc1 | 5.23 |
| Cc1ccccc1NC(=O)C(=O)NCc1ccccn1 | 4.07 |
| CCOC(=O)c1[nH]c(C)c(C(=O)Nc2ccc(F)cc2)c1C | 11.1 |
| O=C(NC(=S)Nc1ccc(S(=O)(=O)NC2CCCCC2)cc1)c1cccs1 | -1.34 |
| Cc1cc(C(=O)CSc2nc(N)cc(=O)[nH]2)c(C)n1-c1ccc(OC(F)F)cc1 | 14.4 |
| Cc1ccc2cc(C#N)c(SCC(=O)N3CCCc4ccccc43)nc2c1C | 10.9 |
| CC(=O)c1sc(NC(=O)C2CC(=O)N(Cc3ccccc3)C2)nc1-c1ccccc1 (stereo not drawn) | 12.4 |
| Cc1ccc(C)c(N2CCN(C(=O)C3CCN(S(=O)(=O)c4cccc5nsnc45)CC3)CC2)c1 | 5.12 |
